Experimental data reported in article PMC6555819.
This is one part of the list.

Target: T1, THRa (Homo sapiens) (UniProt P10827)
T1 sequence: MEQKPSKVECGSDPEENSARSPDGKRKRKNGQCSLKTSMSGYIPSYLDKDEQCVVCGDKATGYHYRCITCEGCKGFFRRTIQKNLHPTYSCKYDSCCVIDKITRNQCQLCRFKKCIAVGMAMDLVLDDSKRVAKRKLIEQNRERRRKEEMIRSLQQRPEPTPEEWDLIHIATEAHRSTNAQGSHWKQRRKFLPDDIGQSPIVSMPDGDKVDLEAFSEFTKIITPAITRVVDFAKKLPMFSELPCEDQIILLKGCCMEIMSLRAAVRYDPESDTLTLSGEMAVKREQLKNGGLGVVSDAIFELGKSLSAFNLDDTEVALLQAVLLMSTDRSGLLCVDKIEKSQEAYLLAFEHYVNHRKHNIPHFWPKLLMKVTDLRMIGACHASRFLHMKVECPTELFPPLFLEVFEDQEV
Conditions: 90 nM, no RXRa, PBS pH 7.4, 2% milk, 0.02% Triton X-100, 1 mM DTT, BSA, 0.4 mg/ml salmon testes DNA; double strand, one strand shown

Row | Sequence | binding signal (PBM z-score against 500 random probes)
1 | GCTGGCAATGGCTGGACCACTCCAAGAACTGTGTGGGCGATTGACAGCGTAGAATGAAGG | -0.88
2 | GCTCCCTGCCCAGTTCTGTGCAGGGTGTGCGTGTCTGCGATTGACAGCGTAGAATGAAGG | -0.95
3 | GCGCCTCTGGAATGTAAACTCCAGCCTGGCATGTATGCGATTGACAGCGTAGAATGAAGG | -0.46

Target: T2, VDR (Homo sapiens) (UniProt P11473)
T2 sequence: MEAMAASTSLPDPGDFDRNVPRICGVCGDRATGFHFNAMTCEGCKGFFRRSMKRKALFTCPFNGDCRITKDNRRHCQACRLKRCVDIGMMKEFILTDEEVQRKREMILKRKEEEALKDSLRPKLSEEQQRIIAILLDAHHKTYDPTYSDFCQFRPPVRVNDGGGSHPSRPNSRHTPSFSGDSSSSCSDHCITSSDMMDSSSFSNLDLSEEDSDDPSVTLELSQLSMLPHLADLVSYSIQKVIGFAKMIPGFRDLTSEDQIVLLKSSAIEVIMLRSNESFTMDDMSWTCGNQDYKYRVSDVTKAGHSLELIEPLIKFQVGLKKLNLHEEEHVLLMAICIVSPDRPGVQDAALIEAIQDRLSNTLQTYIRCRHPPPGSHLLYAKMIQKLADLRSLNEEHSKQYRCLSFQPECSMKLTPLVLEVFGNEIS
Conditions: 270 nM, no RXRa, PBS pH 7.4, 2% milk, 0.02% Triton X-100, 1 mM DTT, BSA, 0.4 mg/ml salmon testes DNA; double strand, one strand shown

Row | Sequence | binding signal (PBM z-score against 500 random probes)
4 | GCGTGCGAGGGAAGGAGCATGCTTCATTGATCCCATGCGATTGACAGCGTAGAATGAAGG | -1.05
5 | GCTCTCTGGTACCAGTGAAGAAGACGTCCAGGTGGCGCGATTGACAGCGTAGAATGAAGG | -0.76
6 | GCTGGGCACATGAGGGATGGGAGTTGATCTCTGTGGGCGATTGACAGCGTAGAATGAAGG | 0.06
7 | GCGCTACTTGGGAGGCTGAGATGGTAGAATCACTTGGCGATTGACAGCGTAGAATGAAGG | -0.69
